From ChEMBL document CHEMBL4888484, “Replenishing the malaria drug discovery pipeline: Screening and hit evaluation of the MMV Hit Generation Library 1 (HGL1) against asexual blood stage Plasmodium falciparum ,using a nano luciferase reporter read-out” (2022)
Among all 150,000 compounds or so, about 540 (0.36%) showed an effect of 50% or more. This is one part of the list.

System: Plasmodium falciparum
Test: Primary screen in NF54 nanoGlo assay, in single point, at 2uM, 72h; a lower Z score goes with more inhibition
Assay type: functional, Erythrocyte
Settings: timepoint 72 hour

SMILES | % Inhibition | Z score
O=C(NC1CCCC1)c1nnc(CS(=O)(=O)c2ccccc2)o1 | 0% | 0.06
COC[C@@H]1CN(C(=O)c2ccc3[nH]ccc3c2)C[C@H]1c1nc(C)no1 | -4% | 0.7
COc1ccc(C)cc1[C@@H](C)NC(=O)CCc1nc(N(C)C)no1 | -7% | 0.91
Cc1cc(C(=O)C[C@H](C(=O)Nc2ccccc2)C(=O)c2ccccc2)c(C)n1CCc1ccc(Cl)cc1 | -19% | 3.49
CCO[C@@]1(C)C[C@H]1NC(=O)c1ccc(C)c(-c2cnn(C)c2)c1 | -14% | 1.76
CCc1nc(N)sc1C(=O)N[C@H]1CC[C@@H]2CCC[C@@H]21 | -1% | 0.26
CC(=O)N(CCCN1CCOCC1)[C@H]1CCN(S(=O)(=O)c2cccc3cccnc23)C1 | -6% | 0.8
CCn1c(CN2CCN(CC(=O)NC3CC3)CC2)nc2cc(S(=O)(=O)N3CCCCC3)ccc21 | -3% | 0.37
c1ccc(-c2ncn(CCc3c[nH]cn3)c2[C@H]2CCOC2)cc1 | -11% | 1.53
COc1cc(C(=O)NC2(c3c(F)cccc3F)COC2)ccn1 | -14% | 2.7
Cc1nnc(-c2cnn(C)c2N)n1C[C@H]1CCCO1 | 45% | -5.82
CC1CCCN(S(=O)(=O)N2CCCC2c2ccccc2)C1 (centres undefined) | -9% | 1.12
CCOC(=O)[C@H](C)c1nc(-c2c[nH]c3ncccc23)cs1 | 5% | -0.81
CC(C)Oc1cncc(C(=O)NC2(c3ccccc3)COC2)c1 | -8% | 1.01
COc1nccnc1N1CCC[C@@]2(CCC(=O)N(Cc3ccccc3)C2)C1 | 7% | -1.02
CN(C)CCN1C(=O)N[C@@](CCc2ccccc2)(C2CCN(C(=O)C3(C)CCCCC3)CC2)C1=O | -8% | 1.53
Cc1nc2c(c(N3CCCC3)n1)CCN(C(=O)c1cc(=O)[nH]c(=O)[nH]1)C2 | 0% | -0.05
CCn1cc(-c2nc(C(=O)NCc3ccccc3F)cs2)c2cccnc21 | -6% | 1.09
CN(Cc1cnc2ccccc2n1)C(=O)c1ccc(N2CC(=O)NC2=O)cc1 | -8% | 1.34
Cc1cccnc1CNC[C@H]1Cn2c(-c3ccc(Cl)cc3)cnc2CO1 | 6% | -0.85
C=CCN1CCN(C(=O)CCn2ccn3nc(-c4ccc(C(C)C)cc4)cc3c2=O)CC1 | -5% | 0.61
NC(=O)[C@@H]1CN(Cc2nnc(C3CCC3)o2)c2ccccc2N1Cc1nnc(C2CCC2)o1 | 8% | -1.11
CC(C)(C)c1ccc(C(=O)C(=O)N2CCC(C(=O)NC3CC3)CC2)cc1 | -7% | 1.06
Cc1ccc(C(NC(=O)N2CCCN3CCCC3C2)C(C)(C)C)o1 (centres undefined) | -14% | 1.28
COc1ccc(-c2nccnc2N2CCCC2)c(OC)c1 | -14% | 1.4
Fc1ccc(Nc2nc(OC(C(F)(F)F)C(F)(F)F)nc(N3CCCCCC3)n2)cc1 | 29% | 0.03

SMILES | % Inhibition | Z score
CC(=O)c1ccc(-n2cnnc2CCc2c(C)n[nH]c2C)cc1 | 5% | -0.99
COCCc1nsc(NCc2cc(Br)cc3c2OCC3)n1 | 0% | 0.07
Cn1cc(Cc2noc(C3CCC(F)(F)CC3)n2)nn1 | 0% | -0.01
O=C(NCc1cc[nH]n1)C(=O)Nc1ccc(Br)cc1Cl | -4% | 0.63
CC[C@@H](COCC(F)(F)F)NC(=O)c1ccn(C(C)C)n1 | -15% | 2.69
Cc1cc(NCc2cccnc2N)nc(C2CC2)n1 | 4% | -0.72
Cc1cnc(C(=O)Nc2nnc(C(F)(F)F)[nH]2)cn1 | -4% | 0.81
CC(=O)N1CCCN(C(=O)CCn2cnc3ccccc3c2=O)CC1 | -13% | 1.94
CC(C)Oc1cccc(C(=O)N(C)C[C@H]2CCCN2C)n1 | 0% | 0.04
CC(C)C(=O)N(Cc1ccc(-c2ccc(Cl)c(Cl)c2)o1)[C@H]1CCS(=O)(=O)C1 | -5% | 0.61
COc1cc(OCC(=O)NC(C2CC2)C2CC2)ccc1C#N | 7% | -0.84
CN(CCN1CCOC(C)(C)C1)c1ccc(C#N)cn1 | -6% | 1.1
CN(Cc1ccco1)CC1(CN(C)Cc2ccco2)COC1 | -12% | 1.64
COc1cccc(S(=O)(=O)N2CCC(c3noc(COCC4CC4)n3)CC2)c1 | 2% | -0.25
Cc1nc(-c2c3n(c(=O)n(CC(=O)NCc4ccc(F)cc4)c2=O)CCCC3)no1 | 4% | -0.46
CCc1ccc(N2C[C@@H](c3nnc(NC(=O)C(C)(C)C)s3)CC2=O)cc1 | -7% | 0.97
c1ccc(CCn2cc(C3CC3)nn2)nc1 | -9% | 1.74
CCOC(=O)[C@H](NC(=O)c1ccccc1)c1nnc(-c2ccc(F)cc2)o1 | -7% | 1.06
COCC(=O)N[C@@H]1CC[C@H]2CCOc3ccccc3C(=O)N3CCN(C4CCCCC4)C[C@H]3C(=O)NC[C@H]1O2 | -6% | 0.79
CO[C@H]1C[C@H]2CN(C(=O)CCc3c(C)noc3C)[C@@H](Cc3ccccc3)C(=O)N2C1 | -15% | 2.1
COCc1csc(NC(=O)C(=O)NCc2ccc(C)cc2C)n1 | 3% | -0.47
O=C(NCCc1ccc(Cl)cc1)c1ccc(Oc2ccnc(-c3cccc(F)c3)n2)cc1 | 2% | -0.25
Cc1cn(-c2nc(-c3ccccc3)sc2-c2ccccc2)c(=O)nc1O | -28% | 3.3
COc1ccc(-c2nnc3n2CCOC3)cc1OC | 4% | -0.83
CCOCc1nc([C@@H]2CCCN2S(=O)(=O)c2cc(OC)ccc2OC)no1 | -5% | 0.63
Cc1nnsc1C(=O)N1CCN(c2ncccn2)[C@H]2CS(=O)(=O)C[C@H]21 | 1% | -0.16
